Reference: the supplement of paper PMC11417369
Some of the results follow.

tested on: PfSIP2 AP2 domain 1 (GST-tagged); test: gcPBM binding intensity (ln(normalized median fluorescence intensity)); higher = stronger DNA binding
Outline: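 Binding intensity values are the highest Masliner-normalised natural-log median intensity among replicate spots of either probe orientation. The binding step lasted 1 h in 1× PBS with 1% milk, 0.2 mg/ml BSA, 0.5% salmon testes DNA and 0.03% Triton X-100, using GST-tagged P. falciparum DNA-binding domains expressed in E. coli on an Agilent 4 × 180k array of primer-extended double-stranded 36-bp intergenic genomic probes plus negative controls. Alexa488 anti-GST antibody and a 488 nm scan detected bound protein.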

Sequence | gcPBM binding intensity (ln)
TAGAAAAAAGATAGCACACACGGCCCAATATATATA [CACACA_site5354] | 7.42
TAAGTATATAAAATTACACACTATTTTTTTTCAAGT [CACACA_site1792] | 6.78
TCGAATATCTTATAGGTGCATCATAAATACATATGT | 10.8
TTAATTTCGAATTATTGTACATTAATATATCTACAG [XGTACX_site3314] | 6.89
AAAACAAATAGACACGCACACAAAAAAAAAAAAAAA [CACACA_site801] | 7.11
ATATATATATATATATGTACATAAATATAAATTTAA [XGTACX_site8715] | 9.47
GAATAAAAAAAAAAAAAAATTTATTTTATAATAAAA [CACACA_negctrl_site1514] | 6.65
ATGCAATAATAATGGAGTACATATTAATATTGATCA [XGTACX_site2312] | 6.95
AAAAAATATATTAAGGCACACACATACATATATATA [CACACA_site9239] | 7.39
CCTTTTGGATGAAAGTGTACAGGTGAGAAAAATTCC [XGTACX_site3358] | 6.76
TACATCGGTATATAAACACACAACAAAAATGCTTAC [CACACA_site5983] | 7.05
AAAATAATTAAAAAAAGTACTCGTAATATAAATATA [XGTACX_site4967] | 6.98
ACAAATAAATAAAAATGTACAAATGAATACATCTTA [XGTACX_site3780] | 6.95
TTAAAAGATATTACATGTACATATTCAATATATGTA [XGTACX_site5895] | 6.74
TTTTTTTAAAAAAACAAAAAAAAAAAAAATATAAAA [TGCATGCA_negctrl_site511] | 6.73
TATGAAAATTAAGTTTGTACACAAGTGGAAAAAAAA [XGTACX_site6129] | 6.85
TACATTTATAATAATACACACATAAATTTACATTTT [CACACA_site3463] | 7.11
AAAAAAAAAAAAAAAAAAAAAAAAAAAAAAAAAAAT [CACACA_negctrl_site882] | 9.05
TTTGTTATTTATTAGTGTACAAAAAAGCATTTCAAA [XGTACX_site8729] | 7.15
AAATTAAATAAATTTACACACTAAAAGTTACCTATA [CACACA_site6623] | 6.81
ATATAAAGAAATTAATTTTTCAACAATAAAAATATA [CACACA_negctrl_site1262] | 6.81
AATAATGTATAATGATGTACAAAAAAGGAAGACATA [XGTACX_site2474] | 7.25
ATATTTTGTAATATTTGTACATATATTATACATATA [XGTACX_site963] | 7.12

Sequence | gcPBM binding intensity (ln)
TTTTTTTTGCGTACAGTGCAAATTTATTTACTATTC | 8.36
AAATATAATAATATATGTACATATATATATATATAT [XGTACX_site6980] | 9.73
AAAAAAATATATATATATATATATATATATATATAT [TGCATGCA_negctrl_site7] | 9.58
CGTGGGAGCGGACACACACACACACCCATATATATA [CACACA_site4340] | 7.57
TATGTATTAAATTTTACACACATGATTCTCTATATG [CACACA_site8720] | 6.88
TATACATATTATATATGTACACATATTATATGTATA [XGTACX_site5851] | 7.05
AATTTAAAAGCTTGTGGTACTTTTGCTCTTCCTTTG [XGTACX_site3148] | 6.64
TCAACAAATAAACTTTGTACATATATACAAAATATA [XGTACX_site4447] | 6.88
ATACAAAAAAGAAGGACACACAGAAGTAACATGTTA [CACACA_site3074] | 6.79
ATGAATTATATATTATGTACATATAATTAAAATATA [XGTACX_site7140] | 6.98
TTTAAAAAAAAAAAAAAAAATTAAATGAATTATTAA [CACACA_negctrl_site1121] | 6.49
TAACATGATATATAATGTACATATAAGATATTTATA [XGTACX_site4383] | 6.93
ATAACATAACATAATACACACATATAAAAAAGAAAT [CACACA_site3028] | 7.24
ATATAATATATTTTCACACATATTTTATGATGATAA [CACACA_site5614] | 6.95
AAAAAAAAAAAAAAAGGTACAGTAAAAAATTCCTCT [XGTACX_site5947] | 7.41
AAATTTAATTTTATATCACACATTAAATTTTAATGG [CACACA_site4251] | 6.9
TATTCTATAAATATATTTTTTTAATTTTTTATTTTA [CACACA_negctrl_site307] | 6.62
TATGTAAAAAGAGAAAAAAAAAAGAACGATAATTTC [CACACA_negctrl_site946] | 6.58
ATATAAGAATTTAAGAGTACATTCACTTCAAATTTA [XGTACX_site2115] | 6.94
AGGTGTATCATAAAATGTACATACATACATACATAA [XGTACX_site4479] | 7.02
AAAATGTGCTTTTCAGTGCAATTTTTTTTGTAATAA [GTGCAC_site9566] | 7.56
TTGTAATTCATTCAAATATAAAATAAATAAATATGA [CACACA_negctrl_site349] | 6.59
TATTATTATTTTTTATGTACTAACGACAAAAATATT [XGTACX_site252] | 7.19

Sequence | gcPBM binding intensity (ln)
AAGCTACACATAGATTATTATTAATTTAATGTATAT [CACACA_negctrl_site548] | 6.82
TACGTGAAATTATATACACACATAAATATGTCTGTA [CACACA_site3122] | 6.83
ACAAGCTTTCATAAGGTGCAATGATTTAACAAAAAA [GTGCAC_site9726] | 10.1
AATTATTAGCGTGGTGTGCACAAAATTATGGACACA | 8.73
TATAAAAATAATATTACACACATGTAAAATGTCGGT [CACACA_site3264] | 6.86
ACACATGACATCCGTTGTACAATCATCATAAAAATG [XGTACX_site5397] | 7.32
AGCATTTATGAAAAATGTACACACATCAAATGCTTA [XGTACX_site8749] | 6.96
AGCAACCCCCTAGCTACACACATATAGATATATATA [CACACA_site951] | 7.58
TTTCCCTTAAATTAATGTACATAAATTGAAAATACC [XGTACX_site1602] | 7.33
TATATATTATACACGTGTACACATTATAACAATATA [XGTACX_site7799] | 7.4
TAAAATTTTTTTGTTTGTACATATATATATATAATA [XGTACX_site5609] | 7.27
AAAAAAAAAAAACACACACACAAAAAAAAATATATA [CACACA_site1105] | 6.94
AAAAAAATAAATAAATACATACATATATATATGTAT [GTGCAC_negctrl_site510] | 6.85
TTGCCCCAGGAGTTCACACACATAATAGATTGTCAC [CACACA_site726] | 7.01
ATAATCCTTAAACACACACACACACTAATAAATAAA [CACACA_site8052] | 7.03
AAAAGTTATAGACACACACACATATAAATATAGATT [CACACA_site6617] | 6.96
ATAAAAATTAAAGAATGTACACATATAATATATGTA [XGTACX_site8735] | 6.86
TTGTTTCCTTAATATTCACACACATATATATAATAT [CACACA_site8553] | 7.56
TATAAATGTATACAAGTGCATATTATTCACACATAA | 8.35
TTTTAAAAAAATAAATAAATAGAAAAAAAAAATAAA [TGCATGCA_negctrl_site579] | 6.69
GGATATATTTTATGTACACACATATATAACGGATAT [CACACA_site4847] | 7.21
TATTATGACTTAAGTTGTACTGTTGAAAGAAGAAAA [XGTACX_site2985] | 7.02
CGTATAAATAAATACACACACATATAAATATGTAAA [CACACA_site6236] | 7.1

Sequence | gcPBM binding intensity (ln)
TAATATATTGTAGATGCATGCATTAACTATTACAAA [TGCATGCA_site190] | 6.81
TATCAATGGAAAATATATATTTGTATATATGTAATA [XGTACX_negctrl_site257] | 7.04
GAAATTATTATATAAACACACATTTATTTTATTTTA [CACACA_site1957] | 6.85
GTATTATACCATAATGCATGTTAACTTCAAAAGAAA [TGCATGCA_site839] | 7
TGTGTATACTTGTGTATACCAAATTAAAGACGCTTT [CACACA_negctrl_site1359] | 6.74
AAAAAATAAAAAAGGTGGTCATGTCACAAATACTTT [XGTACX_site7454] | 6.78
TAAAAGTGATATGTTCGTACGTATTTATATGTAATA [XGTACX_site211] | 7.06
GTATATATATATATATATATATATATATATATATAT [CACACA_negctrl_site609] | 9.29
TCTCCATCTTATGAGACATGCACTTTTTATTTAATA [TGCATGCA_site121] | 9.24
TTGTGTAAATGTTAAGTGCATTTGGTAAAATATAAA [GTGCAC_site9699] | 8.01
AAAAAAAAAAAAAAAACACACATACCCATATATTTT [CACACA_site6013] | 7.49
ATGATATGCAATTTAGTGCATAACAAAATTGGTATA | 8.45
TTTTTCTTTTTTTGGGGTACAGGGAAATCTATATTT [XGTACX_site7025] | 7.26
TCTTAATTTTTGAAGGTACACACTAATATATTAAAT [CACACA_site1191] | 7.11
CCATAAAAAGGTACATGTACAAAAAGCAAAAATATG [XGTACX_site5543] | 7.29
ATATTTTTCCAACATCGTACATTATGAGTCAAAATT [XGTACX_site993] | 7.33
CAATTAAAGATATGAACACACATGTGAACTTTCTAT [CACACA_site7796] | 6.7
AATTTAATTTTTTCGTGTACTTATATAGGAGGTTTT [XGTACX_site8310] | 6.97
TTTCTTATCAACCTTTTTTTTTTTTTTTTATTCTTA [TGCATGCA_negctrl_site162] | 6.44
CCCATATTATAGGTGTGTACATAAAAGTATATATAA [XGTACX_site3629] | 7.65
